Test results reported in the RNAGym collection of RNA variant scans (doi:10.1093/nar/gkz1192).
Read counts are not given, so values of variants with three or more changes are uncertain.

B1: CPEB3 Ribozyme (parent)
chain: UAACAGGGGGCCACAGCAGAAGCGUUCACGUCGCAGCCCCUGUCAGAUUCUGGUGAAUCUGCGAAUUCUGCUGUAUAUCUC

Variants of: B1
Test: self-cleavage, relative activity (ratio to wild type); higher = more cleavage; in vitro, sequencing
Method in brief: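 CPEB3 self-cleaving ribozyme mutant libraries were made by rounds of error-prone PCR, barcoded, and transcribed in vitro with T7 RNA polymerase for 5 hours at 37°C. Cleavage occurred during transcription and a 15 min DNase I step before EDTA stop. RNAs were reverse transcribed with template switching and Illumina-sequenced, with DNA sequencing mapping barcodes to variants. Relative activity is the variant's cleaved/total read fraction divided by wild type's (minimum 5 reads), averaged across three batches.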

Variant	self-cleavage
UAACAGGGGGCCACAGCAGAAGCGUUCACGUCGCAGCCCCUGUCUGAUUCUGGUGAAUCUGCGGAUUCUGCUGUAUUUCUC [A45U A64G A77U]	0.46
UAACAGGGGGCCACAGCAGAAGCGUUCACGUCGCAGCCCCUGUCUGAUUCUGGUGAAUCAGCGAAUUCUGCAGUAUACUUC [A45U U60A U72A U78C C79U]	0.81
UAACAGGGGGCCACAGCAGAAGCGUUCACGUCGCAGCCCCUGUCUGAUCCUGGUGAAUCAGCGAAUUCUGCUGUAUAUCUC [A45U U49C U60A]	0.42
UAACAGGGGGCCACAGCAGAAGCGUUCACGUCGCAGCCCCUGUCUGAUUCUAGUGAAUCUGCGAAUUCUGCCGUAUAUCUC [A45U G52A U72C]	0.28
UAACAGGGGGCCACAGCAGAAGCGUUCACGUCGCAGCCCCUGUCGGAUUCUGGUGAACCUGCGAAUUCCGCUGUAUAUCUC [A45G U58C U69C]	0.08
UAACAGGGGGCCACAGCAGAAGCGUUCACGUCGCAGCCCCUGUCGGAUUCUGGUGAAUCUGCGAAUUCUGCUGCAUAUCCC [A45G U74C U80C]	1.06
UAACAGGGGGCCACAGCAGAAGCGUUCACGUCGCAGCCCCUGUCUUAUUCUGGUGUAUCUGCGAAUUCUGCCGUAUAUCUC [A45U G46U A56U U72C]	0.12
UAACAGGGGGCCACAGCAGAAGCGUUCACGUCGCAGCCCCUGUCUGAUUCUGGUAAGUCUGCGAACUUUGCUGUAUAUCUC [A45U G55A A57G U66C C68U]	0.1
UAACAGGGGGCCACAGCAGAAGCGUUCACGUCGCAGCCCCUGUCUGAUUCUGGUCAAUCUGCGAAUUCUGCUGUUUAUCUC [A45U G55C A75U]	0.17
UAACAGGGGGCCACAGCAGAAGCGUUCACGUCGCAGCCCCUGUCUGAUUCUGGUGAGUCUGCGAAUUCUGCUGUAUAUCCC [A45U A57G U80C]	0.25
UAACAGGGGGCCACAGCAGAAGCGUUCACGUCGCAGCCCCUGUCUGAUUCUGGCGAAUCUGCGAAUCCUGCUGUAUAUCUC [A45U U54C U67C]	0.32
UAACAGGGGGCCACAGCAGAAGCGUUCACGUCGCAGCCCCUGUCUGAUUCUGGUGAAUCUGCGGUUUCUGCCGUAUAUCUC [A45U A64G A65U U72C]	0.13
UAACAGGGGGCCACAGCAGAAGCGUUCACGUCGCAGCCCCUGUCUGACUCUGGUGAAUCUGCGAACUCUGCUGUAUAUCCC [A45U U48C U66C U80C]	0.2
UAACAGGGGGCCACAGCAGAAGCGUUCACGUCGCAGCCCCUGUCUGAUUCUGGUGAACCUGCGAACUCUGCUGCAUAUCUC [A45U U58C U66C U74C]	0.13
UAACAGGGGGCCACAGCAGAAGCGUUCACGUCGCAGCCCCUGUCGGAUUCAGGUGAAUCAGCGAAUUCUGCUGUAUAUCUC [A45G U51A U60A]	0.51
UAACAGGGGGCCACAGCAGAAGCGUUCACGUCGCAGCCCCUGUCUGAUUCUGGUGAAUCUGCGAACUCUGCUGUACAUCUC [A45U U66C U76C]	0.27
UAACAGGGGGCCACAGCAGAAGCGUUCACGUCGCAGCCCCUGUCUGGUUCUGGUGGAUCUGCGAAUUCUGCUGUAUAUCUC [A45U A47G A56G]	0.13

Variant	self-cleavage
UAACAGGGGGCCACAGCAGAAGCGUUCACGUCGCAGCCCCUGUCUGAUUCCGGGGAAUCUGCGAAUUCUGCUGUAUAUCUC [A45U U51C U54G]	0.2
UAACAGGGGGCCACAGCAGAAGCGUUCACGUCGCAGCCCCUGUCUGAUUCCGGAGAAUCUGCGAAUUCUGCUGUAUAUCUC [A45U U51C U54A]	0.65
UAACAGGGGGCCACAGCAGAAGCGUUCACGUCGCAGCCCCUGUCGGAUUCUGGUGAAUCUGCGAAUCCUGCUGUAUAUCAC [A45G U67C U80A]	0.38
UAACAGGGGGCCACAGCAGAAGCGUUCACGUCGCAGCCCCUGUCGGAUUCUGGCGAAUCUGCGAAUUCCGCUGUAUAUCUC [A45G U54C U69C]	0.18
UAACAGGGGGCCACAGCAGAAGCGUUCACGUCGCAGCCCCUGUCUGAUUCUGGUGGAUCUGCGAAUUCUGCCGUAUAUCUC [A45U A56G U72C]	0.3
UAACAGGGGGCCACAGCAGAAGCGUUCACGUCGCAGCCCCUGUCGGAUACUGGUGAAUCUGCGAAUUCAGCAGUAUAUCUC [A45G U49A U69A U72A]	0.08
UAACAGGGGGCCACAGCAGAAGCGUUCACGUCGCAGCCCCUGUCGGAUUCUGGUGAAUCAGCAAAUUCUGCUGUAUAACUC [A45G U60A G63A U78A]	0.17
UAACAGGGGGCCACAGCAGAAGCGUUCACGUCGCAGCCCCUGUCUGUUUCUGGUGAAUCUGCGAAUUCUGCUGUAUAUCCC [A45U A47U U80C]	0.22
UAACAGGGGGCCACAGCAGAAGCGUUCACGUCGCAGCCCCUGUCUGAUUCUGGUGAAUCUGCGCAUUCUGCCGUAUAUCUC [A45U A64C U72C]	0.28
UAACAGGGGGCCACAGCAGAAGCGUUCACGUCGCAGCCCCUGUCUGAUUCUGGUGAAUCUGCGAGUUCUGCUAUAUAUCUC [A45U A65G G73A]	0.46
UAACAGGGGGCCACAGCAGAAGCGUUCACGUCGCAGCCCCUGUCUGAUCCUGGAGAAUCUUCGAAUUCUGCUGUAUAUCUC [A45U U49C U54A G61U]	0.16
UAACAGGGGGCCACAGCAGAAGCGUUCACGUCGCAGCCCCUGUCGGAUUCUGGAGAAUCCGCGUAUUCUGCUGUAUAUCUC [A45G U54A U60C A64U]	0.54
UAACAGGGGGCCACAGCAGAAGCGUUCACGUCGCAGCCCCUGUCGGACUCAGGUGAAUCUGCGAAUUCUGCUGUAUAUCUC [A45G U48C U51A]	0.27
UAACAGGGGGCCACAGCAGAAGCGUUCACGUCGCAGCCCCUGUCGGAUUCUGGUGAAUCUGCGAAUUCAGCCGUAUAUCUC [A45G U69A U72C]	0.25
UAACAGGGGGCCACAGCAGAAGCGUUCACGUCGCAGCCCCUGUCGGAUUCUGGUGAAUCUGCGAAUACUGCUGUAUACCUC [A45G U67A U78C]	0.4
UAACAGGGGGCCACAGCAGAAGCGUUCACGUCGCAGCCCCUGUCGGAUUCUGGUGAAUCCGCGAAUUCUGCAGUAAAUCUC [A45G U60C U72A U76A]	0.98
UAACAGGGGGCCACAGCAGAAGCGUUCACGUCGCAGCCCCUGUCGGAGUCAGGUGAAUCAGCGAAUUCUGCUGUAUAUCUC [A45G U48G U51A U60A]	0.15
